Measurements published in PubChem BioAssay AID1240 (Sanford-Burnham Center for Chemical Genomics, 2008).
“And” between values parts separate entries of the source, which are not always exact repeats. Equal values may be shown once. Among all 50,000 compounds or so, about 800 (1.6%) showed an effect of 50% or more. This is one part of the list.

These compounds were tested against Bcl-2-like protein 10 (Homo sapiens) (UniProt Q9HD36) (assay: Phenotype converters, Bcl-B/TR3 peptide binding displacement, primary biochemical FP (AID 1240;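 further: 0% = Bcl-B with tracer peptide and DMSO and 100% = tracer peptide lacking Bcl-B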)). Settings: GST-Bcl-B / FITC-TR3 peptide fluorescence polarization; stronger effect = higher value; compound at 3.75 mg/L.
Sequence of UniProt Q9HD36 (Q9HD36 whole entry, looked up): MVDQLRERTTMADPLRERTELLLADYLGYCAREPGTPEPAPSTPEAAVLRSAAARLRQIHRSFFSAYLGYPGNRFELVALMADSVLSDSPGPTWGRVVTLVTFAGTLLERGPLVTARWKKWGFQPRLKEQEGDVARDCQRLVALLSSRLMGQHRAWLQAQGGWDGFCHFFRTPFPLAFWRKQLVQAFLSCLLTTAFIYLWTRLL

Structure (SMILES) | displacement
O=C(CN1CCOCC1)NCC(=O)Nc1ccc(Br)cc1C(=O)c1ccccc1 | 12%
C=CCn1cc(C=C2C(=O)NC(=O)NC2=O)c2ccccc21 | 16.3%
CN1CCN(c2ccc([N+](=O)[O-])c(Br)c2F)CC1 | 0.4%
O=C(O)c1cn(Cc2ccccc2)c2ccccc12 | -2.6%
Nc1ccc(Br)cc1C(=O)c1ccc(Cl)cc1Cl | 10%
Cc1cccnc1-n1c(CN2C(=O)c3ccccc3C2=O)nc2ccccc2c1=O | 10.4%
CC(Cc1ccccc1)NC(=O)CN1CCCC1=O (stereo not drawn) | 8.5%
CN(C)C(=O)C(c1ccccc1)c1ccccc1 | 20.4%
C[C@]12CCCCC1CCC1C2CC[C@@]2(C)C1CC[C@@]2(O)CC#N (stereo partly drawn) | 2.9%
CC1(C)C(=O)N(c2ccccc2)C(=O)N(c2ccccc2)C1=O | 17.1%
Cc1cc(OCc2ccc(F)cc2)c2c3c(c(=O)oc2c1)CCCC3 | -3.2%
O=C1NC(=S)NC(=O)C1=Cc1ccc(O)c(O)c1 | 7.6%
COc1cc(/C=C/c2nc3ccccc3c(=O)n2-c2ccccc2)ccc1O | 5.6%
O=c1c2ccccc2nc(-c2ccccc2F)n1-c1ccccc1 | 14.1%
c1cc(CN2CCN(C3CC4CCC3C4)CC2)ccn1 (stereo not drawn) | -7.2%
CCc1ccc(CN2CCN(Cc3cc(Br)ccc3O)CC2)cc1 | -8.4%
Cc1nc2cc([N+](=O)[O-])ccc2c(=O)n1-c1ccc(Cl)cc1 | 71.3%
CCOC(=O)C(P(=O)(OCC)OCC)P(=S)(c1ccccc1)c1ccccc1 (stereo not drawn) | 11%
CCc1ccc(N2C(=O)/C(=C/c3ccc(OCC(=O)O)c(Br)c3)C(=O)NC2=S)cc1 | -0.7%
O=C1NC(=O)C(=Cc2cc(Cl)c(O)c(Cl)c2)C(=O)N1 | -7.7%
COc1ccc(/C=C/c2nc3ccccc3c(=O)n2-c2ccc(OC)cc2)cc1 | -2%
O=[N+]([O-])/N=C1\NCN(c2ccc(Cl)cc2)CN1c1ccccc1 | 1.8%
C=CCN1C(=O)/C(=C\c2cccs2)C(=O)NC1=S | -2.1%
Clc1ccc(CCNCc2ccc3c(c2)OCO3)c(Cl)c1 | 2.1%
COc1ccc(CCNC2CC3CCC2C3)cc1OC (stereo not drawn) | 3.8%

Structure (SMILES) | displacement
COc1ccc(O)c(CN2CCN(Cc3ccc(Br)cc3)CC2)c1 | 5.5%
CCCCOc1cc(C)cc2oc(=O)c3c(c12)CCC3 | 9.6%
COC(=O)c1cccc(-c2ccc(C=C3C(=O)NC(=S)NC3=O)o2)c1 | 1.1%
O=C1NC(=O)C(=Cc2ccc(N3CCOCC3)cc2)C(=O)N1 | 78.9%
CCC(=O)Nc1ccc(Cl)c(Cl)c1 | 11.4%
O=C(Cc1ccccc1)N1CCN(Cc2ccc(F)cc2)CC1 | -18.7%
O=C(COc1ccccc1)N1CCN(Cc2cccc(Cl)c2)CC1 | -14.6%
Fc1ccc(CN2CCN(Cc3cccc(Br)c3)CC2)cc1 | -9.7%
O=C(NC1CCSC1=O)c1cccs1 (stereo not drawn) | -6.7%
O=C(CNC(=O)c1ccccc1Cl)Nc1ccc(Br)cc1C(=O)c1ccccc1 | 11.1%
CCN(CC)c1ccc(CC2C(=O)N(C)C(=O)N(C)C2=O)cc1 | 24.9%
Cc1cc(-c2ccc(C=C3C(=O)NC(=O)NC3=O)o2)ccc1[N+](=O)[O-] | 13.1%
CCCCCC1(C)NCCN2C(=O)CSC21 (stereo not drawn) | 0.1%
O=c1c2ccccc2nc(-c2ccco2)n1-c1ccc(Br)cn1 | 0.8%
O=C1NC(=S)N(c2ccc(Br)cc2)C(=O)/C1=C/c1ccc(-c2ccc(C(=O)O)cc2)o1 | 21.4%
COC(=O)c1c(NC(=O)C23CC4CC(CC(C4)C2)C3)sc2c1CCCC2 | -4.6%
COc1ccc(N2C(=O)/C(=C/c3ccc(-c4cc(C(=O)O)ccc4Cl)o3)C(=O)NC2=S)cc1 | 10.9%
O=C1NC(=S)N(c2ccc(F)cc2)C(=O)/C1=C/c1ccc(Br)o1 | -40%
Nc1c2c(nc3ccccc13)CCCCC2 | 0.8%
CCN1C(=O)/C(=C/c2cccn2C)C(=O)NC1=S | 45.4%
Cc1ccc(C=C2C(=O)NC(=S)N(c3ccccc3F)C2=O)s1 | 14.7%
O=c1c2ccccc2nc(-c2cccnc2)n1-c1ccc(Br)cn1 | 15.5%
CCCCOC(=O)C1CN1C(C)(C)C(=O)OCC (stereo not drawn) | 14.7%
COc1ccc(OCC(=O)N2CCN(C)CC2)cc1 | -0.7%
Cc1ccccc1CN(CCc1ccc2c(c1)OCO2)Cc1ccccc1C | -4.4%

Structure (SMILES) | displacement
CC(=O)Oc1ccccc1C(=O)Oc1ccc2c(c1)c(C(C)=O)c(C)n2Cc1ccccc1 | -14.5%
C=CCN1C(=O)NC(=O)/C(=C/c2ccc(-c3cc([N+](=O)[O-])ccc3Cl)o2)C1=O | 84.3%
CC(C)OC(NC(=O)c1ccco1)C(Cl)(Cl)Cl (stereo not drawn) | 15%
CC(C)Oc1c(Br)cc(Br)cc1C=C(C#N)C#N | 5.4%
O=C(COc1ccc2ccccc2c1)N1CCN(C2CC3CCC2C3)CC1 (stereo not drawn) | 2%
C[n+]1ccc(-c2ccncc2)cc1 | -3.4%
COCCOC(=O)C1CN1C(Cc1ccccc1)C(=O)OC (stereo not drawn) | -13.9%
CCN(CC)S(=O)(=O)c1ccc(C(=O)Nc2ccc([N+](=O)[O-])cc2C(=O)c2ccccc2)cc1 | -9.4%
CCn1cc(C=C2C(=O)NC(=O)NC2=O)c2ccccc21 | 12.6%
COc1cccc(-n2c(/C=C/c3ccc4c(c3)OCO4)nc3ccccc3c2=O)c1 | -16%
CCOC(=O)c1c(C)n(CC(C)C)c2ccc(OC)cc12 | 12.2%
O=S(=O)(c1cc(Cl)c(O)c(Cl)c1)c1cc(Cl)c(O)c(Cl)c1 | 9.2% and 13.6%
O=C1c2ccccc2C(=O)N1Cc1nc2ccccc2c(=O)n1-c1nccs1 | -5%
C=CCc1cc(/C=C2/C(=O)NC(=O)N(c3ccc(C(C)C)cc3)C2=O)cc(OC)c1O | -24.8%
Cc1cc([N+](=O)[O-])ccc1-c1ccc(/C=C2/C(=O)NC(=O)N(C)C2=O)o1 | 11.4%
Clc1ccc(CCNCc2ccccn2)c(Cl)c1 | -8%
Cc1cccc(-n2c(/C=C/c3ccc4c(c3)OCO4)nc3ccccc3c2=O)c1 | -0.4%
Cc1ccc(-c2nc3ccccc3c(=O)n2-c2ncccc2C)cc1 | -11.7%
O=Cc1cn(Cc2ccc(Cl)cc2Cl)c2ccccc12 | 2.2%
CC(C)CC(=O)NC(Oc1ccc(Cl)cc1)C(Cl)(Cl)Cl (stereo not drawn) | 15.4%
O=[N+]([O-])c1ccc(CN2CCN(Cc3ccccc3F)CC2)cc1 | -9.3%
COc1ccc(CCNCc2ccccc2C(F)(F)F)cc1 | 5.4%
O=[N+]([O-])N=S(c1ccccc1)c1ccccc1 | -4.8%
